{
  "source": "PubChem BioAssay AID485281",
  "about": "(National Center for Advancing Translational Sciences (NCATS), 2010)",
  "note": "In all, about 350,000 compounds went through this assay and about 260 (0.074%) were called active. The inconclusive results got no clear call from the source; some entries with a clear call stand among them for comparison. Calls come from the whole dose curve; as a rule, active = well fitted inhibition curve with a large enough effect; inconclusive = small, poorly fitted or top-dose-only effect; inactive = no such curve, though single readings can be large or run the other way. Potencies of inconclusive entries are doubtful fits and often do not repeat. % is set by controls: 0 for no effect and ±100 for the full control effect; potency is the fitted concentration of half-maximal effect; tags give direction and shape of the fitted curve.",
  "data": [
    {"biological_target": "Ferritin light chain (Equus caballus) (UniProt P02791)", "sequence (P02791 whole entry, looked up)": "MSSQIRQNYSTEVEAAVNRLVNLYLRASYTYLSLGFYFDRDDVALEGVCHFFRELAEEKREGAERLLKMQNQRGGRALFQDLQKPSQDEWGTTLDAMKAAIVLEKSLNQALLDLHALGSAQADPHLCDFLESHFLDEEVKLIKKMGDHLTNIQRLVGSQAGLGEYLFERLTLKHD", "test": "qHTS Assay for Identification of Novel General Anesthetics; note: nearly all actives have a fitted effect of over 20% in size", "details": "apoferritin/1-aminoanthracene competitive binding, fluorescence; activity change, negative = displacement: at 77.5 µM (top of the series)", "how_it_was_run": "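Concentration-response curves derived by four-parameter Hill fitting of normalized fluorescence, where compounds displaced 1-AMA from 10 uM horse apoferritin following a brief 10 min room-temperature incubation; propofol titration acted as positive control.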", "values": [
      {"compound": "CC(C)C[C@H](NC(=O)[C@H](CCCCN)NC(=O)CNC(=O)[C@H](CC(C)C)NC(=O)[C@@H](N)C(C)C)C(=O)N[C@@H](CO)C(=O)N[C@@H](CCC(N)=O)C(=O)N[C@@H](CCC(=O)O)C(=O)N[C@@H](CC(C)C)C(=O)N[C@@H](Cc1cnc[nH]1)C(=O)N[C@@H](CCCCN)C(=O)N[C@@H](CC(C)C)C(=O)N[C@@H](CCC(N)=O)C(=O)N[C@H](C(=O)N[C@@H](Cc1ccc(O)cc1)C(=O)N1CCC[C@H]1C(=O)N[C@@H](CCCNC(=N)N)C(=O)N[C@H](C(=O)N[C@@H](CC(N)=O)C(=O)N[C@H](C(=O)NCC(=O)N[C@@H](CO)C(=O)NCC(=O)N[C@H](C(=O)N1CCC[C@H]1C(N)=O)[C@@H](C)O)[C@@H](C)O)[C@@H](C)O)[C@@H](C)O", "activity change, negative = displacement": "inactive: -1.46%"},
      {"compound": "CC(=O)N1CCN(c2ccc(NC(=S)NC(=O)COc3ccc(C(C)(C)C)cc3)cc2)CC1", "activity change, negative = displacement": "inactive: -7.94%"},
      {"compound": "Cc1cc(C(=O)OCc2nc3ccccc3s2)c(C)o1", "Potency": "inconclusive: 25.1 µM [inhibitor, partial curve]"},
      {"compound": "O=C(N/N=C/c1cccc(O)c1)c1csc2ccccc12", "Potency": "inconclusive: 50.1 µM [inhibitor, single point]"},
      {"compound": "Cc1ccc(NC(=O)CS(=O)CC(=O)NC23CC4CC(CC(C4)C2)C3)cc1", "note": "(stereo unspecified)", "Potency": "inconclusive: 35.5 µM [inhibitor, partial curve]"},
      {"compound": "Cc1cc(C)n(-c2nc(NCC(C)O)c3c4c(sc3n2)CCCC4)n1", "note": "(stereo unspecified)", "Potency": "inconclusive: 50.1 µM [inhibitor, single point]"},
      {"compound": "COc1ccccc1N1CCN(C(=O)c2cnn(-c3ccc(F)cc3F)c2C2CCNCC2)CC1", "Potency": "inconclusive: 39.8 µM [inhibitor, partial curve]"},
      {"compound": "CS(=O)(=O)N1CCc2cc(-c3csc(NC(=O)Cc4ccccc4)n3)ccc21", "activity change, negative = displacement": "inactive: -0.627%"},
      {"compound": "Cc1ccc(/C=N/NC(=O)C(NC(=O)c2ccccc2)c2n[nH]c(=O)c3ccccc23)cc1", "note": "(stereo unspecified)", "Potency": "inconclusive: 39.8 µM [inhibitor, partial curve]"},
      {"compound": "COC(=O)N1C(=O)[C@@](c2ccccc2)(C2CCCCC2)N1C(=O)OC", "activity change, negative = displacement": "inactive: -22.6%"},
      {"compound": "O=C(/C=C/c1c(F)cccc1Cl)N1CCc2ccccc2C1", "Potency": "inconclusive: 39.8 µM [inhibitor, partial curve]"},
      {"compound": "CCN(CC)S(=O)(=O)c1cccc(C(=O)NCC(=O)OCC(=O)NCc2ccccc2)c1", "Potency": "inconclusive: 28.2 µM [inhibitor, partial curve]"},
      {"compound": "O=C(c1ccccc1)c1nn(-c2ccc(Cl)cc2)c(=O)cc1C(F)(F)F", "Potency": "inconclusive: 15.8 µM [inhibitor, partial curve]"},
      {"compound": "Cc1snc(S(=O)(=O)/C(C#N)=N/Nc2cccc(C(F)(F)F)c2)c1C#N", "Potency": "inconclusive: 39.8 µM [inhibitor, single point]"},
      {"compound": "O=C(COC(=O)c1cccc(S(=O)(=O)N2CCN(c3ccccc3)CC2)c1)NCc1ccco1", "Potency": "inconclusive: 15.8 µM [inhibitor, partial curve]"},
      {"compound": "Cc1ccccc1/C=N/NC(=O)c1cccnc1", "activity change, negative = displacement": "inactive: -5.11%"},
      {"compound": "CCOC(=O)c1c(NC(=O)CSc2nnnn2C)sc(C)c1C", "Potency": "inconclusive: 25.1 µM [inhibitor, single point]"},
      {"compound": "O=C(Nc1ncc(Cc2ccccc2)s1)c1cccs1", "Potency": "inconclusive: 11.2 µM [inhibitor, full curve, poor fit]"},
      {"compound": "Cc1cccc(C)c1NC(=S)NCc1ccccc1", "Potency": "inconclusive: 12.6 µM [inhibitor, partial curve]"},
      {"compound": "FC(F)(F)c1cccc(NC(=S)NNC(=S)NCc2ccccc2)c1", "Potency": "inconclusive: 20 µM [inhibitor, partial curve]"},
      {"compound": "Cc1ccc2[nH]c3c(=O)n(CC(=O)N(CCN(C)C)Cc4ccccc4)ncc3c2c1", "Potency": "inconclusive: 3.98 µM [inhibitor, full curve]"},
      {"compound": "Cc1cccc(CN2CCCC(C(=O)N3CCc4ccccc4C3)C2)c1", "note": "(stereo unspecified)", "Potency": "inconclusive: 25.1 µM [inhibitor, partial curve]"},
      {"compound": "Cc1ccc2oc(C(=O)NCc3ccc4c(c3)OCO4)c(C)c2c1", "Potency": "inconclusive: 2.51 µM [inhibitor, partial curve]"},
      {"compound": "Cc1cc(C)c(C(=O)C2OC(=O)C(C)(C)C(=O)C2(C)C)c(C)c1", "note": "(stereo unspecified)", "Potency": "inconclusive: 10 µM [inhibitor, partial curve]"},
      {"compound": "O=C(Cc1cccs1)N/N=C/C(Br)=C/c1ccccc1", "Potency": "inconclusive: 39.8 µM [inhibitor, partial curve]"},
      {"compound": "COc1ccc(CCNCC(=O)Nc2ccc(OC(F)(F)F)cc2)cc1OC", "Potency": "inconclusive: 35.5 µM [inhibitor, single point]"},
      {"compound": "CCOC(=O)N1CCN(c2ccc(S(=O)(=O)N(Cc3ccccc3)Cc3ccccc3)cn2)CC1", "activity change, negative = displacement": "inactive: 7.01%"},
      {"compound": "COc1ccc(C2CC(=O)C3=C(C2)Nc2ccccc2N(C(C)=O)C3c2ccco2)cc1", "note": "(stereo unspecified)", "Potency": "inconclusive: 17.8 µM [inhibitor, partial curve]"},
      {"compound": "N#CCC(=O)Nc1ncc(Cc2ccccc2Cl)s1", "Potency": "inconclusive: 15.8 µM [inhibitor, partial curve]"},
      {"compound": "CN1CCC(N(C)S(=O)(=O)c2ccc(F)cc2F)CC1", "activity change, negative = displacement": "inactive: 2.68%"},
      {"compound": "O=C(CSc1ccccn1)N1CCc2ccccc21", "Potency": "inconclusive: 50.1 µM [inhibitor, single point]"},
      {"compound": "N#CC1=C(N)c2ccccc2CC12CCCCC2", "Potency": "inconclusive: 35.5 µM [inhibitor, partial curve]"},
      {"compound": "COc1nnc(-c2ccc(C)cc2)c2ccccc12", "Potency": "inconclusive: 31.6 µM [inhibitor, single point]"},
      {"compound": "Nc1nnc(SCc2ccccc2F)s1", "Potency": "inconclusive: 31.6 µM [inhibitor, partial curve, poor fit]"},
      {"compound": "COc1c(Cl)cc(Cl)cc1CNc1ccc(S(N)(=O)=O)cc1", "Potency": "inconclusive: 20 µM [inhibitor, partial curve]"},
      {"compound": "C=Cc1ccc(Cn2c(=O)n(-c3cccc(Cl)c3)c(=O)c3c4c(sc32)CN(C(C)=O)CC4)cc1", "Potency": "inconclusive: 4.47 µM [inhibitor, full curve, poor fit]"},
      {"compound": "O=[N+]([O-])c1ccc(Sc2cccc3cccnc23)cc1", "Potency": "inconclusive: 35.5 µM [inhibitor, partial curve]"},
      {"compound": "COCCCNC(=O)CCn1c(=O)c2ccccc2n(CC(=O)Nc2cc(Cl)ccc2OC)c1=O", "Potency": "inconclusive: 1.12 µM [inhibitor, full curve]"},
      {"compound": "Nc1ccccc1SCc1ccccc1Cl", "Potency": "inconclusive: 35.5 µM [inhibitor, single point]"},
      {"compound": "CC(C(=O)N1CCN(c2ccc(Cl)cc2)CC1)c1ncc(C(F)(F)F)cc1Cl", "note": "(stereo unspecified)", "Potency": "inconclusive: 35.5 µM [inhibitor, partial curve]"},
      {"compound": "Cc1cccc(N2CCn3c2nc2c3c(=O)n(C/C=C/c3ccccc3)c(=O)n2C)c1", "Potency": "inconclusive: 31.6 µM [inhibitor, single point]"},
      {"compound": "Cc1ccccc1Cn1c(=O)n(CCCC(=O)NCc2ccco2)c(=O)c2sccc21", "Potency": "inconclusive: 28.2 µM [inhibitor, partial curve]"},
      {"compound": "COc1ccc(C(=O)n2c(SC)nc3cc4c(cc32)OCCO4)cc1", "Potency": "inconclusive: 31.6 µM [inhibitor, partial curve]"},
      {"compound": "CN1C(C(=O)Nc2cccc(O)c2)=CC(c2ccco2)=NS1(=O)=O", "Potency": "inconclusive: 39.8 µM [inhibitor, single point]"},
      {"compound": "Cn1cccc1C(=O)C(=O)Nc1ccccc1C(F)(F)F", "Potency": "inconclusive: 31.6 µM [inhibitor, partial curve]"},
      {"compound": "Cc1ccc(OCCn2cc(/C(N)=N/O)c3ccccc32)cc1C", "Potency": "inconclusive: 39.8 µM [inhibitor, partial curve]"},
      {"compound": "O=C(COc1ccc2ccccc2c1)Nc1ccc(Cc2ccncc2)cc1", "activity change, negative = displacement": "inactive: -12.6%"},
      {"compound": "Cc1ccc(S(=O)(=O)CC#CCOC(=O)c2ccc([N+](=O)[O-])cc2)cc1", "Potency": "inconclusive: 56.2 µM [inhibitor, single point]"},
      {"compound": "CCc1nnc(NC(=O)c2nc(SCc3ccccc3F)ncc2Cl)s1", "Potency": "inconclusive: 11.2 µM [inhibitor, partial curve]"},
      {"compound": "CC(=O)NC12CC3CC(C)(C1)CC(NC(C)=O)(C3)C2", "Potency": "inconclusive: 22.4 µM [inhibitor, partial curve]"},
      {"compound": "Cc1cccc(C)c1NC(=O)/C(C#N)=C/c1cccs1", "activity change, negative = displacement": "inactive: -15.7%"},
      {"compound": "CCc1c(C)nc2nncn2c1NCc1ccccc1", "activity change, negative = displacement": "inactive: -8.07%"},
      {"compound": "CC(C)CC(=O)Nc1ccc(F)c(Cl)c1", "Potency": "inconclusive: 15.8 µM [inhibitor, partial curve]"},
      {"compound": "Cc1ccnc(NC(=O)Cc2ccc(-c3ccccc3)cc2)c1", "Potency": "inconclusive: 11.2 µM [inhibitor, partial curve]"},
      {"compound": "COc1ccc(NC(=O)COC(=O)c2cc(OC)c(OC)cc2NC(=O)c2ccco2)cc1OC", "activity change, negative = displacement": "inactive: -6.74%"},
      {"compound": "COc1ccc(C(=O)NCC(=O)OCc2cc(=O)n3nc(C4CCCCC4)sc3n2)cc1", "Potency": "inconclusive: 50.1 µM [inhibitor, single point]"},
      {"compound": "Cc1ccc(CNC(=O)C(=O)c2cn(CC(=O)N3CCCC3)c3ccccc23)cc1", "Potency": "inconclusive: 35.5 µM [inhibitor, partial curve]"},
      {"compound": "Nc1ccc2nc(SCc3cccc(F)c3)sc2c1", "Potency": "inconclusive: 39.8 µM [inhibitor, single point]"},
      {"compound": "O=C(O)CC(=O)Nc1ccc(Oc2ccc(C(F)(F)F)cn2)c(Cl)c1", "Potency": "inconclusive: 20 µM [inhibitor, partial curve]"},
      {"compound": "Cc1cccc(NC(=O)C(=O)NCCc2c[nH]c3ccccc23)c1C", "Potency": "inconclusive: 35.5 µM [inhibitor, single point]"},
      {"compound": "Nc1cc(=O)[nH]c(SCc2ccccc2Cl)n1", "Potency": "inconclusive: 20 µM [inhibitor, partial curve]"}
    ]}
  ]
}
